This data set deals with the molecule itself. The data set can be described thus: SEC; antibody and P-cadherin construct 10 μM each, 60 min at room temperature (TSP11 with EC12 K14E also 720 min), Superose 12 10/300 GL, 10 mM HEPES, 150 mM NaCl, 3 mM CaCl2, pH 7.5, 25 °C. Background: SEC sorts molecules by how far they enter the pores of the column.

B1: human P-cadherin EC12 (domain or fragment)
chain: not shown
notes: P-cadherin (cadherin-3), human, extracellular domains EC1-EC2; Samples monomer, X-dimer and strand-swap dimer in fast exchange; the strand-swap dimer is the major component; source: E. coli Rosetta2 (DE3), SUMO fusion, Ni-NTA, SUMO cleaved with Ulp1, SEC
On to B1, for which the binding result is given as “binds”.

The values above are taken from article PMC5206748, “Disruption of cell adhesion by an antibody targeting the cell-adhesive intermediate (X-dimer) of human P-cadherin” (Scientific Reports, 2017).
